Assay [1] addresses T1, ACA8 N-terminus (first 116 amino acids, 1M-I116) in the activation domain vector pGADT7 (Arabidopsis thaliana) (UniProt Q9LF79).
T1 sequence: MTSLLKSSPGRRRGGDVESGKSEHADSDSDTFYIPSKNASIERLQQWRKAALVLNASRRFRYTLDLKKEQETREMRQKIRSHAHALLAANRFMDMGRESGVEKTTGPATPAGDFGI
Nature of the assay: two-hybrid; yeast PJ69-4A; ACA8 N-terminus in the AD vector pGADT7, CIPKs in the BD vector pGBT9.BS; serial dilutions spotted on SD-W-L-H with 2.5 mM 3AT, 30 °C, 3-5 d.

Protein sequences, listed by entry. Tags and fused reporters are not part of them.
UniProt O81445: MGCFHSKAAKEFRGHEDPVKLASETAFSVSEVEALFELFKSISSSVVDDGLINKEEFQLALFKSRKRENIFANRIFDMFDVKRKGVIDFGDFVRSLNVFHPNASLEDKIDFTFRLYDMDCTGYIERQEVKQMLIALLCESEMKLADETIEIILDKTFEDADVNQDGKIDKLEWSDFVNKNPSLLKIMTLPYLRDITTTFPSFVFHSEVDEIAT

Assay [2] has as its target CBL1 fused to the C-terminal part of YFP (CBL1::YC) (Arabidopsis thaliana) (UniProt O81445). Nature of the assay: split reporter; BiFC of YN::CIPK fusions with ACA8::YC or CBL1::YC in transiently transformed N. benthamiana leaves; confocal microscopy, 4 d after infiltration.
The target in assay [3] is T2, ACA8 full-length protein fused to the C-terminal part of YFP (ACA8::YC) (Arabidopsis thaliana) (UniProt Q9LF79).
T2 sequence: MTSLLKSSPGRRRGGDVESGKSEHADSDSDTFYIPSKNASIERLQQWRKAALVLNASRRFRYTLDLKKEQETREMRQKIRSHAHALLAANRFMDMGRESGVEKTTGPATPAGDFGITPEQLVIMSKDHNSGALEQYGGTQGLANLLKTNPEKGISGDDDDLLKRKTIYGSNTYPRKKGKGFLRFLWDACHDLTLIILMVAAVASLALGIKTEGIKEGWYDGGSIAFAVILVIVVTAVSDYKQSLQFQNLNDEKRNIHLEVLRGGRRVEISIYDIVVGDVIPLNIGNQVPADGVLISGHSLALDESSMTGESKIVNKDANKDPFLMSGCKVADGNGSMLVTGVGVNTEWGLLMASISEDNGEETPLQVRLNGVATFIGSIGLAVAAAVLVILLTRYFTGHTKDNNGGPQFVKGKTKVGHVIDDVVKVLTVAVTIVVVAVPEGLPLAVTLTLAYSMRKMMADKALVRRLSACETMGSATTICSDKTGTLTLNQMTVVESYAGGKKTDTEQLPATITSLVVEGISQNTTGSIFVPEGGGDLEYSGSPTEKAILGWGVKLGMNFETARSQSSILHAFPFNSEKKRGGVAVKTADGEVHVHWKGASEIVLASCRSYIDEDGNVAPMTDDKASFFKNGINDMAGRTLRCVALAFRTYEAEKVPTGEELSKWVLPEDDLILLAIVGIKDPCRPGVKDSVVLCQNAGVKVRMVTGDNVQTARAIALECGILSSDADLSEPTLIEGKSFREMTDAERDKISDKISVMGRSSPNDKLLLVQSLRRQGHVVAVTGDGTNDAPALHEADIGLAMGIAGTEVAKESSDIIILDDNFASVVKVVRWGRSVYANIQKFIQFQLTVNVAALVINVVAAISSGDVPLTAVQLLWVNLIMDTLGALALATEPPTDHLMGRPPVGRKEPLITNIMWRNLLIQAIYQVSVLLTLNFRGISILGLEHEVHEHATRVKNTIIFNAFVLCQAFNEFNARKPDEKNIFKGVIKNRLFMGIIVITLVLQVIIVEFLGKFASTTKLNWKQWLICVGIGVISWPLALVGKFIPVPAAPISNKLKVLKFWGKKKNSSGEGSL
The description is as above.

For assay [4], the target named is T2, ACA8 full-length protein fused to the C-terminal part of YFP (ACA8::YC) (Arabidopsis thaliana). Nature of the assay: split reporter; BiFC of ACA8::YC with YN::CIPK9 in N. benthamiana leaf cells that also co-express the cytoplasmic mutant CBL1G2A::OFP and NUP::YC3.6.

No constants are given. Whether binding was seen depends on the method and setting. For part of these data: Binding seen in cells or lysates may run through a third protein. Some binding calls cover weakened binding; strength is not graded here. Tags and fused reporters may be left off the sequences shown.

B1: CIPK14 in the BD vector pGBT9.BS (enzyme, UniProt Q9LZW4 1-442)
chain: MVDSDPVEFPPENRRGQLFGKYEVGKLVGCGAFAKVYHGRSTATGQSVAIKVVSKQRLQKGGLNGNIQREIAIMHRLRHPSIVRLFEVLATKSKIFFVMEFAKGGELFAKVSKGRFCEDLSRRYFQQLISAVGYCHSRGIFHRDLKPENLLLDEKLDLKISDFGLSALTDQIRPDGLLHTLCGTPAYVAPEVLAKKGYDGAKIDIWSCGIILFVLNAGYLPFNDHNLMVMYRKIYKGEFRIPKWTSPDLRRLLTRLLDTNPQTRITIEEIIHDPWFKQGYDDRMSKFHLEDSDMKLPADETDSEMGARRMNAFDIISGSPGFNLSGLFGDARKYDRVERFVSAWTAERVVERLEEIVSAENLTVAKKETWGMKIEGQKGNFAMVVEINQLTDELVMIEVRKRQRAAASGRDLWTDTLRPFFVELVHESDQTDPEPTQVHTTS
Regarding B1, the binding entry in assay [1] is “binds”.

B2: CIPK14 fused to the N-terminal part of YFP (YN::CIPK14) (enzyme, UniProt Q9LZW4 1-442)
chain: MVDSDPVEFPPENRRGQLFGKYEVGKLVGCGAFAKVYHGRSTATGQSVAIKVVSKQRLQKGGLNGNIQREIAIMHRLRHPSIVRLFEVLATKSKIFFVMEFAKGGELFAKVSKGRFCEDLSRRYFQQLISAVGYCHSRGIFHRDLKPENLLLDEKLDLKISDFGLSALTDQIRPDGLLHTLCGTPAYVAPEVLAKKGYDGAKIDIWSCGIILFVLNAGYLPFNDHNLMVMYRKIYKGEFRIPKWTSPDLRRLLTRLLDTNPQTRITIEEIIHDPWFKQGYDDRMSKFHLEDSDMKLPADETDSEMGARRMNAFDIISGSPGFNLSGLFGDARKYDRVERFVSAWTAERVVERLEEIVSAENLTVAKKETWGMKIEGQKGNFAMVVEINQLTDELVMIEVRKRQRAAASGRDLWTDTLRPFFVELVHESDQTDPEPTQVHTTS
On to B2, for which the binding result in assay [2] and in assay [3] was “binds” throughout.

B3: CIPK7 fused to the N-terminal part of YFP (YN::CIPK7) (enzyme, UniProt Q9XIW0 1-429)
chain: MESLPQPQNQSSPATTPAKILLGKYELGRRLGSGSFAKVHLARSIESDELVAVKIIEKKKTIESGMEPRIIREIDAMRRLRHHPNILKIHEVMATKSKIYLVMELASGGELFSKVLRRGRLPESTARRYFQQLASALRFSHQDGVAHRDVKPQNLLLDEQGNLKVSDFGLSALPEHLQNGLLHTACGTPAYTAPEVISRRGYDGAKADAWSCGVILFVLLVGDVPFDDSNIAAMYRKIHRRDYRFPSWISKQAKSIIYQMLDPNPVTRMSIETVMKTNWFKKSLETSEFHRNVFDSEVEMKSSVNSITAFDLISLSSGLDLSGLFEAKKKKERRFTAKVSGVEVEEKAKMIGEKLGYVVKKKMMKKEGEVKVVGLGRGRTVIVVEAVELTVDVVVVEVKVVEGEEDDSRWSDLITELEDIVLSWHNDIM
For B3, the binding result in assay [2] is recorded as “binds”.

B4: CIPK7 in the BD vector pGBT9.BS (enzyme, UniProt Q9XIW0 1-429)
chain: MESLPQPQNQSSPATTPAKILLGKYELGRRLGSGSFAKVHLARSIESDELVAVKIIEKKKTIESGMEPRIIREIDAMRRLRHHPNILKIHEVMATKSKIYLVMELASGGELFSKVLRRGRLPESTARRYFQQLASALRFSHQDGVAHRDVKPQNLLLDEQGNLKVSDFGLSALPEHLQNGLLHTACGTPAYTAPEVISRRGYDGAKADAWSCGVILFVLLVGDVPFDDSNIAAMYRKIHRRDYRFPSWISKQAKSIIYQMLDPNPVTRMSIETVMKTNWFKKSLETSEFHRNVFDSEVEMKSSVNSITAFDLISLSSGLDLSGLFEAKKKKERRFTAKVSGVEVEEKAKMIGEKLGYVVKKKMMKKEGEVKVVGLGRGRTVIVVEAVELTVDVVVVEVKVVEGEEDDSRWSDLITELEDIVLSWHNDIM
Regarding B4, the binding entry in assay [1] is recorded as “no binding”.

B5: CIPK9 in the BD vector pGBT9.BS (enzyme, UniProt Q9MAM1 1-447)
chain: MSGSRRKATPASRTRVGNYEMGRTLGEGSFAKVKYAKNTVTGDQAAIKILDREKVFRHKMVEQLKREISTMKLIKHPNVVEIIEVMASKTKIYIVLELVNGGELFDKIAQQGRLKEDEARRYFQQLINAVDYCHSRGVYHRDLKPENLILDANGVLKVSDFGLSAFSRQVREDGLLHTACGTPNYVAPEVLSDKGYDGAAADVWSCGVILFVLMAGYLPFDEPNLMTLYKRICKAEFSCPPWFSQGAKRVIKRILEPNPITRISIAELLEDEWFKKGYKPPSFDQDDEDITIDDVDAAFSNSKECLVTEKKEKPVSMNAFELISSSSEFSLENLFEKQAQLVKKETRFTSQRSASEIMSKMEETAKPLGFNVRKDNYKIKMKGDKSGRKGQLSVATEVFEVAPSLHVVELRKTGGDTLEFHKFYKNFSSGLKDVVWNTDAAAEEQKQ
On to B5, for which the binding result in assay [1] is reported as “binds”.

B6: CIPK9 fused to the N-terminal part of YFP (YN::CIPK9) (enzyme, UniProt Q9MAM1 1-447)
chain: MSGSRRKATPASRTRVGNYEMGRTLGEGSFAKVKYAKNTVTGDQAAIKILDREKVFRHKMVEQLKREISTMKLIKHPNVVEIIEVMASKTKIYIVLELVNGGELFDKIAQQGRLKEDEARRYFQQLINAVDYCHSRGVYHRDLKPENLILDANGVLKVSDFGLSAFSRQVREDGLLHTACGTPNYVAPEVLSDKGYDGAAADVWSCGVILFVLMAGYLPFDEPNLMTLYKRICKAEFSCPPWFSQGAKRVIKRILEPNPITRISIAELLEDEWFKKGYKPPSFDQDDEDITIDDVDAAFSNSKECLVTEKKEKPVSMNAFELISSSSEFSLENLFEKQAQLVKKETRFTSQRSASEIMSKMEETAKPLGFNVRKDNYKIKMKGDKSGRKGQLSVATEVFEVAPSLHVVELRKTGGDTLEFHKFYKNFSSGLKDVVWNTDAAAEEQKQ
As for B6, the figures for the binding entry in assay [4], in assay [2] and in assay [3] were “binds weakly”, “binds” and “binds”, respectively.

The values above are taken from article PMC5853299.
